The antibiotic and cytotoxicity screens of Wong et al. (2023)
The list shows a part of the results.

Legend:
[1] = tested on: HSkMC (human skeletal muscle cells); assay: cytotoxicity call (relative viability < 0.9); settings: 10 µM
[2] = tested on: HepG2; assay: cytotoxicity call (relative viability < 0.9); settings: 10 µM
[3] = tested on: S. aureus RN4220; assay: growth inhibition call (relative growth <= 0.2); settings: 50 µM

Structure (SMILES) | cytotoxicity call [1] | cytotoxicity call [2] | growth inhibition call [3]
CC(C)NC(=O)N(C)C[C@@H]1OCCCC[C@H](C)Oc2ccc(NC(=O)Nc3cccc4ccccc34)cc2C(=O)N([C@H](C)CO)C[C@@H]1C | inactive | inactive | inactive
CCCCOc1cc(C(=O)OCCN(CC)CC)ccc1N.Cl | inactive | inactive | inactive
O=C(C[C@H]1C[C@@H]2c3cc(NC(=O)C4CCOCC4)ccc3O[C@@H]2[C@@H](CO)O1)NCc1ccc2c(c1)OCO2 | inactive | inactive | inactive
C[C@H]1CN([C@@H](C)CO)C(=O)c2cccc(NC(=O)Nc3ccc4c(c3)OCO4)c2O[C@H]1CN(C)Cc1ccc(-c2ccccc2)cc1 | inactive | inactive | inactive
COc1cccc(S(=O)(=O)N(C)C[C@H]2Oc3cc(C#CCN(C)C)ccc3S(=O)(=O)N([C@@H](C)CO)C[C@H]2C)c1 | inactive | inactive | inactive
Cc1noc(C)c1NC(=O)Nc1ccc2c(c1)C(=O)N([C@H](C)CO)C[C@H](C)[C@H](CN(C)Cc1ccc(C(=O)O)cc1)OCCCC[C@@H](C)O2 | inactive | inactive | inactive
C[C@H]1CN([C@@H](C)CO)C(=O)Cc2cc(NC(=O)Cc3cn(C)c4ccccc34)ccc2O[C@@H]1CN(C)C | inactive | inactive | inactive
C[C@@H]1CN([C@@H](C)CO)C(=O)c2cc(NC(=O)Nc3ccc(F)cc3)ccc2O[C@@H](C)CCCCO[C@H]1CN(C)C(=O)Nc1cccc2ccccc12 | inactive | inactive | inactive
C[C@@H]1CCCCO[C@@H](CN(C)C(=O)NC2CCCCC2)[C@@H](C)CN([C@H](C)CO)C(=O)c2cc(NC(=O)C3CCCCC3)ccc2O1 | inactive | inactive | inactive
Cc1noc(C)c1NC(=O)Nc1ccc2c(c1)CC(=O)N([C@H](C)CO)C[C@@H](C)[C@@H](CN(C)Cc1ccc(Cl)c(Cl)c1)O2 | inactive | inactive | inactive
C[C@@H]1CN([C@H](C)CO)C(=O)c2cc(NC(=O)Cc3cn(C)c4ccccc34)ccc2O[C@H]1CN(C)CC1CCCCC1 | inactive | inactive | inactive
NC1=NCCN1CC(=O)O | inactive | active | inactive
CC(C)NC(=O)N(C)C[C@@H]1Oc2ccc(NS(=O)(=O)c3cccs3)cc2CC(=O)N([C@@H](C)CO)C[C@H]1C | inactive | inactive | inactive
CC(N)C(O)c1cccc(O)c1.O=C(O)C(O)C(O)C(=O)O (centres undefined) | inactive | inactive | inactive
Cc1ccc(S(=O)(=O)Nc2ccc3c(c2)C(=O)N([C@@H](C)CO)C[C@@H](C)[C@H](CN(C)C(=O)CCC(F)(F)F)OCCCC[C@H](C)O3)cc1 | inactive | inactive | inactive
C[C@@H]1CCCCO[C@@H](CN(C)C(=O)C2CCCCC2)[C@@H](C)CN([C@H](C)CO)C(=O)c2cc(NC(=O)c3ccncc3)ccc2O1 | inactive | inactive | inactive
CN(C)C(=O)C[C@@H]1C=C[C@@H](NC(=O)C2CCOCC2)[C@H](CO)O1 | inactive | inactive | inactive
O=C(NO)c1ccc(C(=O)N/N=C/[C@@H](O)[C@H](O)[C@H](O)CO)cc1 | inactive | inactive | inactive
CCCNC(=O)C[C@@H]1CC[C@H]2[C@@H](COc3ccc(NS(=O)(=O)c4ccccc4C)cc3C(=O)N2C)O1 | inactive | inactive | inactive

Structure (SMILES) | cytotoxicity call [1] | cytotoxicity call [2] | growth inhibition call [3]
C[C@@H]1CN([C@H](C)CO)C(=O)c2cc(NC(=O)C3CC3)ccc2O[C@H]1CN(C)S(=O)(=O)c1cn(C)cn1 | inactive | inactive | inactive
COc1ccccc1C(=O)Nc1ccc2c(c1)C(=O)N(C)[C@@H]1CC[C@@H](CC(=O)NCc3ccc(Cl)c(Cl)c3)O[C@H]1CO2 | active | inactive | inactive
CC(C)(C)OC(=O)C[C@H]1CC=CC[C@H](CC(=O)N[C@@H](CO)Cc2ccccc2)C(=O)N2CCC[C@@H]2COC1=O | inactive | inactive | inactive
C[C@H](CO)N1C[C@H](C)[C@H](CN(C)Cc2cccc(C(F)(F)F)c2)Oc2ncc(-c3cccc(C(F)(F)F)c3)cc2C1=O | active | inactive | inactive
COc1ccc(NC(=O)Nc2ccc3c(c2)C(=O)N([C@@H](C)CO)C[C@H](C)[C@H](CN(C)S(=O)(=O)c2ccc(Cl)cc2)OCCCC[C@@H](C)O3)cc1 | inactive | inactive | inactive
C[C@@H]1CCCCO[C@H](CN(C)C(=O)Nc2ccc3c(c2)OCO3)[C@@H](C)CN([C@H](C)CO)C(=O)c2cc(NS(=O)(=O)c3ccccc3)ccc2O1 | inactive | inactive | inactive
Cc1noc(C)c1NC(=O)Nc1cccc2c1O[C@@H](CN(C)S(C)(=O)=O)[C@@H](C)CN([C@H](C)CO)C2=O | inactive | inactive | inactive
C[C@@H]1CN([C@@H](C)CO)S(=O)(=O)c2ccc(Br)cc2O[C@@H]1CN(C)S(=O)(=O)c1ccccc1 | inactive | inactive | inactive
C[C@H]1CN([C@@H](C)CO)C(=O)CCCn2nncc2CO[C@@H]1CN(C)C(=O)Nc1cccc(C(F)(F)F)c1 | inactive | inactive | inactive
C[C@H](CO)N1C[C@H](C)[C@@H](CN(C)Cc2ccccn2)Oc2cc(C#CCN(C)C)ccc2S1(=O)=O | inactive | inactive | inactive
Cc1noc(C)c1NC(=O)N(C)C[C@@H]1OCCCC[C@H](C)Oc2ccc(NC(=O)Cc3ccccc3)cc2C(=O)N([C@@H](C)CO)C[C@@H]1C | inactive | inactive | inactive
Cl.c1ccc(C2CN3CCSC3=N2)cc1 (centres undefined) | inactive | inactive | inactive
O=c1c(O)c(O)cc2cccc(O)c(O)c1-2 | inactive | active | inactive
O=C(N[C@H]1CCCCNC1=O)c1ccco1 | inactive | inactive | inactive
CO[C@H](CN(C)C(=O)C1CCOCC1)[C@@H](C)CN(C(=O)Nc1ccc(C(F)(F)F)cc1)[C@H](C)CO | inactive | inactive | active
COc1ccc(CN(C)C[C@H]2OCCCC[C@@H](C)Oc3ccc(NS(=O)(=O)c4ccccc4)cc3C(=O)N([C@H](C)CO)C[C@H]2C)cc1 | inactive | inactive | inactive
C[C@@H]1CCCCO[C@H](CN(C)Cc2ccc(C(=O)Nc3ccccc3N)cc2)[C@H](C)CN([C@H](C)CO)C(=O)c2cc(N(C)C)ccc2O1 | inactive | inactive | inactive
C/C=C/c1cccc(-c2nc(C(=O)NCc3ccc(OC)cc3)cc3c2[C@@H](CCO)N([S@@](=O)C(C)(C)C)C3)c1 | inactive | inactive | inactive
C#CCN([C@H](/C=C/C1CC1)[C@@H](O)Cc1ccccc1)[C@@H](Cc1ccc(-n2cc(CCC(=O)NO)nn2)cc1)C(=O)OC | inactive | inactive | inactive
